The structures appear in SMILES notation. Hit rate of the full screen: of about 150,000 compounds, about 540 (0.36%) showed an effect of 50% or more. This is one part of the list.

The assay relates to Plasmodium falciparum. Briefly: Primary screen in NF54 nanoGlo assay, in single point, at 2uM, 72h; a lower Z score goes with more inhibition. Type of assay: functional, Erythrocyte. Particulars: timepoint 72 hour.
As to `CCCCn1nnnc1CN1CC(C)OC(C)C1` (stereo not drawn), the “% Inhibition” value is given as 11% and the Z score is listed as -2.09.

For `CCc1nsc(N2CCC[C@H](c3nc(-c4ccc(F)cc4)no3)C2)n1`, the “% Inhibition” value is -12% and the Z score was 1.59.

As for `COC(=O)CN(CC(N)=O)[C@H](C)c1ccccc1`, the “% Inhibition” value is on record as 0% and the Z score is -0.04.

For `C#CCOC[C@@H](O)CN(Cc1c(-c2ccccc2)nn(C)c1Oc1ccc(F)cc1F)CC(C)C`, the “% Inhibition” value is given as -13% and the Z score was 2.38.

Turning to `C[C@H](OC(=O)c1cccnc1)C(=O)Nc1ccc(S(=O)(=O)N2CCOCC2)cc1`, the “% Inhibition” value was 3% and the Z score was -0.56.

Take `CC(NC(=O)[C@H]1OCC[C@H]1C)C1CCN(Cc2ccccc2)C1` (stereo partly drawn): the “% Inhibition” value is -6% and the Z score stood at 0.66.

With `O=C(NC[C@H]1CCN(c2ccccc2F)C1)C1(N2CCCC2)CCCCC1`, the “% Inhibition” value is recorded as 0% and the Z score is listed as -0.04.

For the molecule `O=S1(=O)CC2CN(Cc3ccccc3)CC(C1)C2(F)F`, the “% Inhibition” value was determined as 0% and the Z score was 0.07.

As for `CCCc1ccc(OCCNC(=O)[C@H]2C[C@H]3C=C[C@@H]2C3)cc1`, the “% Inhibition” value is -9% and the Z score is reported as 1.09.

Regarding `CC(NC(=O)C(C)(C)C)C(=O)N1CCOCC(C2CCC2)C1` (stereo not drawn), the “% Inhibition” value is -15% and the Z score stood at 2.03.

As to `O=C(NCc1cn2c(n1)C(=O)N(Cc1ccccc1)CC2)c1cccnc1`, the “% Inhibition” value is given as 4% and the Z score is recorded as -0.59.

For the molecule `CN(CCN1CCN(S(=O)(=O)Cc2ccon2)CC1)Cc1ccc(F)cc1`, the “% Inhibition” value is reported as 9% and the Z score is -0.95.

Take `CC1(C)CCCC[C@@H]1C(=O)NCCS(N)(=O)=O`: the “% Inhibition” value came to 4% and the Z score was -0.71.

Consider `CCN1CC(=O)N(Cc2cc(C)cs2)C1=O`, for which the “% Inhibition” value is reported as -8% and the Z score is on record as 0.79.

As for `COC(=O)Cn1ccc(N[C@@H](C)c2nc3ccccc3o2)n1`, the “% Inhibition” value is -7% and the Z score is reported as 0.59.

For the molecule `COCCn1ccnc1C1CCN(c2cc(C(F)(F)F)cc(C)n2)CC1`, the “% Inhibition” value came out at 5% and the Z score is recorded as -0.78.

On to `CCC(CC)C(=O)Nc1cccc(Br)c1`, for which the “% Inhibition” value was -2% and the Z score is on record as 0.27.

As to `Cc1cnc(Cn2cnc(-c3ccccc3)c2COCc2ccccc2)cn1`, the “% Inhibition” value is listed as -7% and the Z score is on record as 1.37.

`CCCN(CC(N)=O)C1CC(OCC)C1(C)C` (stereo not drawn): the “% Inhibition” value is given as -10% and the Z score was determined as 1.45.

For `O=C(Nc1ccc(-n2cnnn2)cc1)[C@@H]1CC=CCC1`, the “% Inhibition” value was -12% and the Z score worked out at 0.98.

Turning to `O=C1N(C2CCCCC2)C[C@H]2CN(Cc3cccs3)CCN12`, the “% Inhibition” value worked out at 10% and the Z score was -1.11.

Take `CN1C[C@@H]2CN(C(=O)c3cccc(-n4ccnn4)c3)C[C@]2(C)C1`: the “% Inhibition” value was -13% and the Z score came out at 2.25.

Consider `CN(Cc1cnccn1)c1nc2ccccc2[nH]1`, for which the “% Inhibition” value is -10% and the Z score is recorded as 1.01.

Regarding `c1ccc(-c2nsc(N3CC[C@H](N4CCCC4)C3)n2)cc1`, the “% Inhibition” value was -1% and the Z score is 0.2.

For the molecule `CN(C)[C@@H](C(=O)Nc1ccc(CC(N)=O)cc1)c1c(F)cccc1F`, the “% Inhibition” value is recorded as 0% and the Z score was 0.05.

With `CC(=O)N[C@H]1[C@H](Oc2ccc(Cl)cc2Cl)O[C@@H]2COC(C)(C)O[C@H]2[C@@H]1O`, the “% Inhibition” value is -6% and the Z score is given as 0.74.

Turning to `O=C1CC[C@H](C(=O)N2CCC3(CCCCC3)C2)CN1`, the “% Inhibition” value is recorded as -1% and the Z score is on record as 0.07.

Turning to `CC1CN2CCCC2CN1S(=O)(=O)c1c(F)cccc1F` (stereo not drawn), the “% Inhibition” value amounted to 28% and the Z score was -3.22.

For `Cn1c(=O)c(-c2ccc(C(=O)Nc3ccc(OC(F)(F)F)cc3)cc2)nc2cccnc21`, the “% Inhibition” value is given as -6% and the Z score came to 0.95.

Take `O=C(NCc1ccc(F)cc1)c1cnc(-c2ccc(F)cc2)nc1N1CCC(Cc2ccccc2)CC1`: the “% Inhibition” value is -9% and the Z score came out at 0.92.

With `CC(C)=CCN1CC[C@]2(CCCO2)CCC1=O`, the “% Inhibition” value turned out to be 28% and the Z score was -5.83.

In the case of `Cn1c(=O)c2ccn(CC(=O)N3CCCC3)c2n(C)c1=O`, the “% Inhibition” value was -8% and the Z score worked out at 0.76.

For `CCOC(=O)NC[C@@H]1C[C@H](F)CN1C(=O)CCc1nc2ccccc2[nH]1`, the “% Inhibition” value is recorded as 16% and the Z score is -2.12.

Regarding `CC1=CCCN(Cc2nc(C(F)F)no2)C1`, the “% Inhibition” value was 2% and the Z score is listed as -0.24.

As for `CCN(C(=O)c1ccc(COC)cc1)c1ccc(Br)cn1`, the “% Inhibition” value was -10% and the Z score was determined as 1.29.

Take `N#Cc1ccccc1N1CCN2c3ccc(C(F)(F)F)cc3CC(C(=O)NC3CCCCC3)C2C1` (stereo not drawn): the “% Inhibition” value is listed as -4% and the Z score is 0.51.

Consider `O=C(c1cc[nH]c1C1CC1)N1CCC(c2nc(=O)[nH][nH]2)CC1`, for which the “% Inhibition” value is recorded as 6% and the Z score is reported as -1.06.

In the case of `Fc1ccc(Oc2cc(N3CCC(N4CCCCC4)CC3)ncn2)c(F)c1`, the “% Inhibition” value was found to be 14% and the Z score is -2.12.

With `CC(C)(C)n1nnnc1[C@@H]1CC2(CCOCC2)C(=O)N1Cc1cccc(F)c1`, the “% Inhibition” value is -5% and the Z score came to 0.55.

For `CC(=O)Oc1c(-c2ccc(NC(=O)C(C)C)cc2)c(-c2ccc(N(C)C)cc2)nn1-c1cc(C)ccc1C`, the “% Inhibition” value is recorded as -8% and the Z score is 1.06.

With `NCC1(NC(=O)CCOc2ccccc2)CCCC1`, the “% Inhibition” value is listed as 4% and the Z score is -0.53.

`COc1ccnc(C(=O)NCC[C@H]2CCOC2)c1`: the “% Inhibition” value is listed as -15% and the Z score worked out at 1.96.

On to `COc1cccc([C@H]2CC(=O)Nc3c2c(C)nn3-c2ncnc3[nH]cnc23)c1`, for which the “% Inhibition” value is 33% and the Z score is -3.7.

Turning to `Cc1cc(N2CCN(C(=O)c3c(F)cccc3F)CC2)nc(N2CCOCC2)n1`, the “% Inhibition” value is on record as -9% and the Z score worked out at 1.1.

For the molecule `COC1(C(=O)N2CCC[C@H](c3nc(-c4ccccc4)c[nH]3)C2)CCCCC1`, the “% Inhibition” value is -2% and the Z score was 0.24.

For `CC1CCCC(CC(=O)NCCCC(=O)O)C1` (stereo not drawn), the “% Inhibition” value is on record as -5% and the Z score is 0.67.

For `CCN(CC)c1ncnc2c1ncn2C1OC(CO)C(O)C1O` (stereo not drawn), the “% Inhibition” value was 4% and the Z score is -0.46.

For the molecule `CCC(=O)N1CCC[C@H]1c1nc(-c2ccccc2)c(C(C)C)o1`, the “% Inhibition” value is reported as -4% and the Z score worked out at 0.54.

`CCCn1nc(Cc2cccnc2)nc1CCc1c[nH]c2ccccc12`: the “% Inhibition” value worked out at 1% and the Z score is -0.16.

Regarding `Cc1cccc(-n2ncc(C(=O)Nc3ccc(Cl)cc3)c2C2CCN(C(=O)OC(C)(C)C)CC2)c1`, the “% Inhibition” value is on record as -11% and the Z score came to 1.68.

On to `C[C@H](O)CN1CCN(C(=O)c2nc3ccccc3s2)CC1`, for which the “% Inhibition” value is given as -10% and the Z score was 1.88.

In the case of `Cc1c(CNc2nnc(C(C)C)s2)cc(C#N)n1C`, the “% Inhibition” value is listed as 0% and the Z score is -0.06.

For `CC(=O)Nc1nc(C)c(S(=O)(=O)N2CCCCC2)s1`, the “% Inhibition” value was -12% and the Z score is 1.32.

For `Cc1nc(CN(CC#N)S(=O)(=O)N(C)C)cs1`, the “% Inhibition” value is listed as -8% and the Z score is reported as 1.26.

One may read the % Inhibition as the relative decrease from the control value, in per cent.

For the origin of these results see ChEMBL document CHEMBL4888484, “Replenishing the malaria drug discovery pipeline: Screening and hit evaluation of the MMV Hit Generation Library 1 (HGL1) against asexual blood stage Plasmodium falciparum ,using a nano luciferase reporter read-out” (2022).
